# Results: PubChem BioAssay AID1347120 (National Center for Advancing Translational Sciences (NCATS), 2019)
# The campaign covered roughly 390,000 compounds. About 930 (0.24%) were called active. This list was built around the results that the source calls inconclusive (neither active nor inactive); the mix of calls is not that of the screen. Calls come from the whole dose curve; as a rule, active = well fitted activation curve with a large enough effect; inconclusive = small, poorly fitted or top-dose-only effect; inactive = no such curve, though single readings can be large or run the other way. A potency beside an inconclusive call is a rough fit, not a confirmed value.
# Assay: qHTS for Suppressors of FUS Proteinopathy: Primary screen using FUS-linked yeast assay; note: nearly all actives have a fitted effect of over 55% in size;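 for growth rescue (activation): plate controls were DMSO vehicle for no effect and reference control for full effect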
# Conditions: S. cerevisiae FUS-expressing, OD600, 24 h; Potency: growth rescue; growth rescue (activation): at 76.6 µM (top of the series)
# Summary of the method: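 Cultures pregrown in 2.5% raffinose medium are shifted to minimal medium containing 2% galactose to express toxic FUS. Compounds are tested at several concentrations. After 24hr at 30C, growth is quantified at 600 nm absorbance.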
# Potency is the fitted concentration of half-maximal effect; tags give direction and shape of the fitted curve.
Structure (SMILES),Potency,growth rescue (activation)
Cc1ccc(C)n1-c1ccc(N(C)C)cc1,"inconclusive: 35.5 µM [activator, single point]",
O=C(CN1CCN(C2CCCCC2)C(=O)C1=O)Nc1ccc(Cl)cc1,,inactive: -19.3%
CCOCc1c(C(=O)N2CCN(Cc3ccc(Br)s3)CC2)oc2ccccc12,"inconclusive: 14.1 µM [activator, partial curve]",
CCCC1=Nc2cc(C(=O)NCCCOCC)ccc2Sc2ccccc21,"inconclusive: 20 µM [activator, partial curve, poor fit]",
O=C(Nc1cccc(Cl)c1)c1cc(S(=O)(=O)N2CCC3(CC2)OCCO3)ccc1F,"inconclusive: 50.1 µM [activator, single point]",
Cc1ccc(-n2cnc3c(=O)[nH]cnc32)cc1,,inactive: 11.3%
CC(NC(=O)/C(C#N)=C/c1ccc([N+](=O)[O-])o1)c1ccccc1 (stereo not given),"inconclusive: 35.5 µM [activator, partial curve, poor fit]",
Cc1ccc(C(=O)c2sc(Nc3ccc(F)cc3)nc2N)c(C)c1,"inconclusive: 50.1 µM [activator, single point]",
CC(C)CC1C(=O)N(Cc2cn(Cc3ccco3)nn2)CCS(=O)(=O)N1Cc1ccc(-c2ccc(Cl)c(Cl)c2)cc1 (stereo not given),"inconclusive: 31.6 µM [activator, single point]",
C[C@H](O)[C@@H]1CN2CCc3c([nH]c4cccc(-c5ccccc5)c34)[C@@H]2C[C@@H]1N(C)C(=O)Nc1ccccc1,,inactive: -2.83%
COc1ccc(CN2C(=O)N(c3ccc(C)cc3)C(=O)C2CC(=O)Nc2ccccc2)cc1OC (stereo not given),,inactive: 21.1%
COc1ccc(/C=C/C2=CC(C)(C)NC(=S)N2)cc1,"inconclusive: 39.8 µM [activator, partial curve, poor fit]",
COc1ccc(CC(=O)N(Cc2ccccc2)c2ccc(C)cc2)cc1S(=O)(=O)N1CCOCC1,"inconclusive: 39.8 µM [activator, partial curve, poor fit]",
Cc1cnc(NC(=O)c2ccco2)s1,,inconclusive: 70.1% [activator]
COc1ccc(S(=O)(=O)N2CCCC2C(=O)Nc2nnc(-c3cccnc3)s2)cc1 (stereo not given),,inactive: 15.9%
CCOC(=O)[C@H]1[C@H]2COc3cc(OC)ccc3[C@@H]2N2C(=O)N(c3ccc(Cl)cc3)C(=O)[C@@]12C,"inconclusive: 28.2 µM [activator, single point]",
CCCOP(=O)(c1ccc(N(C)C)cc1)C(O)c1ccc(N(C)C)cc1 (stereo not given),"inconclusive: 25.1 µM [activator, partial curve, poor fit]",
COc1ccc(N2CCN(C(=O)c3ccc4c(Cl)c5c(nc4c3)CCCC5)CC2)cc1,"inconclusive: 20 µM [activator, single point]",
N#Cc1ccc(C23CC4(C2)[C@H](CN(CC2CCCCC2)[C@@H]4c2ccccc2)C3c2ccccc2)cc1 (stereo not given in full),"inconclusive: 50.1 µM [activator, single point]",
O=S(=O)(Nc1ncnc2sc3c(c12)CCC3)c1ccc2ccccc2c1,"inconclusive: 25.1 µM [activator, partial curve, poor fit]",

Structure (SMILES),Potency,growth rescue (activation)
COc1cc(-c2cc(OC)c3c(C)oc(C)c3c(=O)c2)ccc1OC(=O)c1ccccc1F,,inactive: 43.1%
COc1cccc(C2=CC(c3ccc(OC)c(OC)c3)NC(=S)N2)c1 (stereo not given),"inconclusive: 50.1 µM [activator, single point]",
COCCn1c(=O)[nH]c2cc(C(=O)NCCc3ccc(OC)c(OC)c3)ccc2c1=O,"inconclusive: 50.1 µM [activator, single point]",
COc1ccc(-c2ccc(CCC(=O)O)n2CC(=O)Nc2cccc(C(F)(F)F)c2)cc1,"inconclusive: 35.5 µM [activator, partial curve, poor fit]",
O=C(CC1C=Cc2ccccc2N1C(=O)c1ccccc1)c1ccccc1 (stereo not given),"inconclusive: 31.6 µM [activator, partial curve, poor fit]",
Cc1ccc(Cn2c(SCc3ccc(C(=O)NC4CCCC4)cc3)nc3ccncc32)cc1,"inconclusive: 12.6 µM [activator, partial curve, poor fit]",
Cc1nn(-c2ccccc2)c(OC(=O)C(C)(C)C)c1Sc1ccccc1,,inactive: -5.19%
Cc1ccc2nc(N(CCCN(C)C)C(=O)c3cc(-c4cccs4)nc4ccccc34)sc2c1,"inconclusive: 25.1 µM [activator, partial curve]",
COc1cccc(NC(=O)c2ccc3nc(Cc4ccccc4)oc3c2)c1,,inactive: -0.831%
O=C(CSc1oc(-c2ccccc2)nc1S(=O)(=O)c1ccccc1)c1ccccc1,"inconclusive: 35.5 µM [activator, single point]",
CCOc1ccc(-n2c(SCC(=O)Nc3cc(C)c(NC(=O)c4ccccc4)cc3OC)nnc2-c2cccc(Cl)c2)cc1,"inconclusive: 2.82 µM [activator, full curve, poor fit]",
Cc1ccc(NC(=O)CCS(=O)(=O)c2cc(Br)cc3c2N(C(=O)C2CC2)CC3)cc1,,inactive: -8.03%
CCc1ccc(-n2c(SCc3cccc(F)c3)nc3[nH]ncc3c2=O)cc1,"inconclusive: 50.1 µM [activator, single point]",
N#CCCn1cc(/C=N/O)c(-c2ccccc2)n1,,inactive: 21.4%
C[C@@]12C(=O)Nc3ccc(F)cc3C(=O)N1[C@H]1c3cc(Br)ccc3OC[C@@H]1[C@@H]2c1ccccc1,"inconclusive: 25.1 µM [activator, partial curve, poor fit]",
CCOC(=O)CC[C@@H]1CC[C@]2(CCCN(C(=O)C3CCCC3)C2)O1,,inactive: -5.44%
O=C(COC(=O)c1ncc(Cl)c(Cl)c1Cl)Nc1ccc(Cl)cn1,,inactive: 14%
CCCCCC(=O)N1C[C@@H](O)[C@H](n2cc(C3CC3)nn2)C[C@@H]1c1ccc(Cl)cc1,"inconclusive: 31.6 µM [activator, single point]",
O=C(CSc1nc2cc(S(=O)(=O)N3CCOCC3)ccc2o1)NC1CCCc2ccccc21 (stereo not given),"inconclusive: 50.1 µM [activator, single point]",
COc1ccc(CNC(=O)Cn2nc(C)c3c(C)n(-c4ccccc4)nc3c2=O)cc1OC,,inactive: -6.5%

Structure (SMILES),Potency,growth rescue (activation)
COc1ccccc1N1CCN(C(=O)C2CCCN(S(=O)(=O)c3ccc(C)cc3)C2)CC1 (stereo not given),"inconclusive: 50.1 µM [activator, single point]",
CCCCC(CC)CN=C(N)NC(N)=NCCCCCCN=C(N)NC(N)=NCC(CC)CCCC (stereo not given),"inconclusive: 25.1 µM [activator, partial curve, poor fit]",
c1ccc(C2CC(c3cccs3)=NN2c2ccccc2)cc1 (stereo not given),,inactive: -8.2%
O=C(CN(c1ccc(Cl)c(Cl)c1)S(=O)(=O)c1ccccc1)N1CCc2ccccc2C1,"inconclusive: 20 µM [activator, partial curve, poor fit]",
CC(=O)N1CC2(CC(c3ccccc3C(F)(F)F)=NO2)CN1c1ccc(Cl)cc1 (stereo not given),"inconclusive: 15.8 µM [activator, partial curve, poor fit]",
C[C@@H]1c2ccccc2N2C[C@H](Cc3ccc(C(=O)c4ccccc4)cc3)C[C@@H]12,"inconclusive: 35.5 µM [activator, single point]",
O=C1CN(C(=O)c2ccc(Br)o2)C(c2ccc(F)cc2)c2cc(Cl)ccc2N1 (stereo not given),"inconclusive: 28.2 µM [activator, single point]",
Cc1cc(C)c(NC(=O)c2ccc(CNS(=O)(=O)c3cc(C(F)(F)F)ccc3Cl)cc2)c(C)c1,"inconclusive: 50.1 µM [activator, single point]",
COc1ccc(N2CCN(C(=O)c3cccc(NS(=O)(=O)c4cccc(F)c4)c3)CC2)cc1,"inconclusive: 39.8 µM [activator, single point]",
Cc1cccc(Nc2nnc(SCC(=O)Nc3cccc(S(=O)(=O)N4CCCCC4)c3)s2)c1,"inconclusive: 12.6 µM [activator, partial curve, poor fit]",
CCOC(=O)c1c(-c2ccc(-c3ccccc3)cc2)csc1NC(=O)CCN1CCOCC1,"inconclusive: 39.8 µM [activator, single point]",
O=C(NCc1ccccc1)C12CN(Cc3ccccc3)CC1C(c1cccc([N+](=O)[O-])c1)=NO2 (stereo not given),"inconclusive: 35.5 µM [activator, single point]",
O=C(Nc1ccc2c(c1)nc1n2CCN(Cc2ccccc2)C1)c1cccs1,"inconclusive: 39.8 µM [activator, partial curve, poor fit]",
Fc1ccc(Br)cc1C1C=C(c2ccc(Br)cc2)Nc2nnnn21 (stereo not given),,inactive: 6.05%
CC1=Nc2cc(C(=O)NC(C)C)ccc2Sc2ccc(C)cc21,,inactive: 5.22%
COc1cc(NC(=O)c2ccc(-c3c(C)noc3C)c3ccoc23)cc(OC)c1OC,"inconclusive: 22.4 µM [activator, partial curve]",
COc1ccc(NC(=O)/C(C#N)=C/c2ncc([N+](=O)[O-])n2C)c(OC)c1,"inconclusive: 35.5 µM [activator, partial curve, poor fit]",
Cc1cc(C)cc(NC(=O)C2CCN(S(=O)(=O)c3cccc(-c4noc(C)n4)c3)CC2)c1,"inconclusive: 31.6 µM [activator, single point]",
COc1ccc(C(C)=O)cc1CSc1ccc(S(=O)(=O)N2CCCCC2)cn1,"inconclusive: 28.2 µM [activator, partial curve]",
COC(=O)[C@]12CCCCC=C1N(Cc1cccc3ccccc13)C(=O)[C@H](CC(=O)N1CCC(c3ccccc3)CC1)C2,"inconclusive: 28.2 µM [activator, single point]",
